# The other results are listed elsewhere or left out.
# B1: Gal 3 (Homo sapiens), P17931 (protein)
# chain: MADNFSLHDALSGSGNPNPQGWPGAWGNQPAGAGGYPGASYPGAYPGQAPPGAYPGQAPPGAYHGAPGAYPGAPAPGVYPGPPSGPGAYPSSGQPSAPGAYPATGPYGAPAGPLIVPYNLPLPGGVVPRMLITILGTVKPNANILDFQRGNDVAFHFNPRFNENNRRVIVCNTKLDNNWGREERQSVFPFESGKPFKIQVLVEPDHFKVAVNDAHLLQYNHRVKKLNEISKLGISGDIDLTSASYTMI
# Tests used:
# Test in all cases: glycan array binding signal (z-score within array); higher = stronger binding
# Details in all cases: glycan notation: IUPAC condensed, linker removed
# [1] = target: Neu5Ac(a2-3)Gal6S(b1-4)[Fuc(a1-3)]GlcNAc
# How it was run: (§1)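 The binding signal is a Z-score computed within each array and averaged over linkers. Arrays of the same protein sequence at different concentrations or buffers were also averaged together. Data originate from 3228 arrays in the Consortium for Functional Glycomics database, kept only where the protein sequence was available.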
# Neu5Ac(a2-3)GalNAc = target: Neu5Ac(a2-3)GalNAc
# How it was run: as §1
# [2] = target: Neu5Ac(a2-3)GalNAc(b1-4)GlcNAc
# How it was run: as §1
# [3] = target: Neu5Ac(a2-3)[GalNAc(b1-4)]Gal(b1-4)Glc
# How it was run: as §1
# [4] = target: Neu5Ac(a2-3)[GalNAc(b1-4)]Gal(b1-4)GlcNAc
# How it was run: as §1
# [5] = target: Neu5Ac(a2-3)[GalNAc(b1-4)]Gal(b1-4)GlcNAc(b1-3)GalNAc
# How it was run: as §1
# [6] = target: Neu5Ac(a2-3)[Neu5Ac(a2-6)]GalNAc
# How it was run: as §1
# Neu5Ac(a2-6)Gal = target: Neu5Ac(a2-6)Gal
# How it was run: as §1
# Neu5Ac(a2-6)Gal(b1-4)Glc = target: Neu5Ac(a2-6)Gal(b1-4)Glc
# How it was run: as §1
# [7] = target: Neu5Ac(a2-6)Gal(b1-4)GlcNAc
# How it was run: as §1
# [8] = target: Neu5Ac(a2-6)Gal(b1-4)GlcNAc(b1-2)Man(a1-3)Man(b1-4)GlcNAc(b1-4)GlcNAc
# How it was run: as §1
# [9] = target: Neu5Ac(a2-6)Gal(b1-4)GlcNAc(b1-2)Man(a1-3)[Gal(b1-4)GlcNAc(b1-2)Man(a1-6)]Man(b1-4)GlcNAc(b1-4)GlcNAc
# How it was run: as §1
# [10] = target: Neu5Ac(a2-6)Gal(b1-4)GlcNAc(b1-2)Man(a1-3)[GlcNAc(b1-2)Man(a1-6)]Man(b1-4)GlcNAc(b1-4)GlcNAc
# How it was run: as §1
# [11] = target: Neu5Ac(a2-6)Gal(b1-4)GlcNAc(b1-2)Man(a1-3)[GlcNAc(b1-2)Man(b1-4)GlcNAc(b1-2)Man(a1-6)]Man(b1-4)GlcNAc(b1-4)GlcNAc
# How it was run: as §1
# [12] = target: Neu5Ac(a2-6)Gal(b1-4)GlcNAc(b1-2)Man(a1-3)[Man(a1-6)]Man(b1-4)GlcNAc(b1-4)GlcNAc
# How it was run: as §1
# [13] = target: Neu5Ac(a2-6)Gal(b1-4)GlcNAc(b1-2)Man(a1-3)[Neu5Ac(a2-6)Gal(b1-4)GlcNAc(b1-2)Man(a1-6)]Man(b1-4)GlcNAc(b1-4)GlcNAc
# How it was run: as §1
# [14] = target: Neu5Ac(a2-6)Gal(b1-4)GlcNAc(b1-2)Man(a1-6)Man(b1-4)GlcNAc(b1-4)GlcNAc
# How it was run: as §1
# [15] = target: Neu5Ac(a2-6)Gal(b1-4)GlcNAc(b1-2)Man(a1-6)[Gal(b1-4)GlcNAc(b1-2)Man(a1-3)]Man(b1-4)GlcNAc(b1-4)GlcNAc
# How it was run: as §1
# [16] = target: Neu5Ac(a2-6)Gal(b1-4)GlcNAc(b1-2)Man(a1-6)[GlcNAc(b1-2)Man(a1-3)]Man(b1-4)GlcNAc(b1-4)GlcNAc
# How it was run: as §1
# [17] = target: Neu5Ac(a2-6)Gal(b1-4)GlcNAc(b1-2)Man(a1-6)[Man(a1-3)]Man(b1-4)GlcNAc(b1-4)GlcNAc
# How it was run: as §1
# [18] = target: Neu5Ac(a2-6)Gal(b1-4)GlcNAc(b1-3)Gal(b1-3)GlcNAc
# How it was run: as §1
# [19] = target: Neu5Ac(a2-6)Gal(b1-4)GlcNAc(b1-3)Gal(b1-4)GlcNAc
# How it was run: as §1
# [20] = target: Neu5Ac(a2-6)Gal(b1-4)GlcNAc(b1-3)Gal(b1-4)GlcNAc(b1-3)Gal(b1-4)GlcNAc
# How it was run: as §1
# [21] = target: Neu5Ac(a2-6)Gal(b1-4)GlcNAc(b1-3)Gal(b1-4)[Fuc(a1-3)]GlcNAc(b1-3)Gal(b1-4)[Fuc(a1-3)]GlcNAc
# How it was run: as §1
# [22] = target: Neu5Ac(a2-6)Gal(b1-4)GlcNAc(b1-3)GalNAc
# How it was run: as §1
# [23] = target: Neu5Ac(a2-6)Gal(b1-4)GlcNAc6S
# How it was run: as §1
# Neu5Ac(a2-6)GalNAc = target: Neu5Ac(a2-6)GalNAc
# How it was run: as §1
# [24] = target: Neu5Ac(a2-6)GalNAc(b1-4)GlcNAc
# How it was run: as §1
# [25] = target: Neu5Ac(a2-6)GlcNAc(b1-4)GlcNAc
# How it was run: as §1
# [26] = target: Neu5Ac(a2-6)GlcNAc(b1-4)GlcNAc(b1-4)GlcNAc
# How it was run: as §1
# Neu5Ac(a2-8)Neu5Ac = target: Neu5Ac(a2-8)Neu5Ac
# How it was run: as §1
# [27] = target: Neu5Ac(a2-8)Neu5Ac(a2-3)Gal(b1-4)Glc
# How it was run: as §1
# [28] = target: Neu5Ac(a2-8)Neu5Ac(a2-3)[GalNAc(b1-4)]Gal(b1-4)Glc
# How it was run: as §1
# [29] = target: Neu5Ac(a2-8)Neu5Ac(a2-8)Neu5Ac
# How it was run: as §1
# [30] = target: Neu5Ac(a2-8)Neu5Ac(a2-8)Neu5Ac(a2-3)Gal(b1-4)Glc
# How it was run: as §1
# [31] = target: Neu5Ac(a2-8)Neu5Ac(a2-8)Neu5Ac(a2-3)[GalNAc(b1-4)]Gal(b1-4)Glc
# How it was run: as §1
# [32] = target: Neu5Ac(a2-8)Neu5Ac(a2-8)Neu5Ac(a2-8)Neu5Ac(a2-3)[GalNAc(b1-4)]Gal(b1-4)Glc
# How it was run: as §1
# [33] = target: Neu5Ac(b2-6)Gal(b1-4)GlcNAc
# How it was run: as §1
# Neu5Ac(b2-6)GalNAc = target: Neu5Ac(b2-6)GalNAc
# How it was run: as §1
# [34] = target: Neu5Ac9Ac(a2-3)Gal(b1-3)GlcNAc
# How it was run: as §1
# [35] = target: Neu5Ac9Ac(a2-3)Gal(b1-4)GlcNAc
# How it was run: as §1
# [36] = target: Neu5Ac9Ac(a2-6)Gal(b1-4)GlcNAc
# How it was run: as §1
# [37] = target: Neu5Gc(a2-3)Gal(b1-3)GlcNAc
# How it was run: as §1
# [38] = target: Neu5Gc(a2-3)Gal(b1-3)[Fuc(a1-4)]GlcNAc
# How it was run: as §1
# Neu5Gc(a2-3)Gal(b1-4)Glc = target: Neu5Gc(a2-3)Gal(b1-4)Glc
# How it was run: as §1
# [39] = target: Neu5Gc(a2-3)Gal(b1-4)GlcNAc
# How it was run: as §1
# [40] = target: Neu5Gc(a2-3)Gal(b1-4)[Fuc(a1-3)]GlcNAc
# How it was run: as §1
# [41] = target: Neu5Gc(a2-6)Gal(b1-4)GlcNAc
# How it was run: as §1
# Neu5Gc(a2-6)GalNAc = target: Neu5Gc(a2-6)GalNAc
# How it was run: as §1
# [42] = target: Neu5Gc(b2-6)Gal(b1-4)GlcNAc
# How it was run: as §1
binder,measurement,setting,value
B1,glycan array binding signal (z-score),[1],-0.389
same,glycan array binding signal (z-score),Neu5Ac(a2-3)GalNAc,-0.392
same,glycan array binding signal (z-score),[2],-0.392
same,glycan array binding signal (z-score),[3],-0.391
same,glycan array binding signal (z-score),[4],-0.386
same,glycan array binding signal (z-score),[5],-0.384
same,glycan array binding signal (z-score),[6],-0.392
same,glycan array binding signal (z-score),Neu5Ac(a2-6)Gal,-0.393
same,glycan array binding signal (z-score),Neu5Ac(a2-6)Gal(b1-4)Glc,-0.388
same,glycan array binding signal (z-score),[7],-0.39
same,glycan array binding signal (z-score),[8],-0.392
same,glycan array binding signal (z-score),[9],-0.383
same,glycan array binding signal (z-score),[10],-0.39
same,glycan array binding signal (z-score),[11],-0.25
same,glycan array binding signal (z-score),[12],-0.39
same,glycan array binding signal (z-score),[13],-0.378
same,glycan array binding signal (z-score),[14],-0.392
same,glycan array binding signal (z-score),[15],-0.391
same,glycan array binding signal (z-score),[16],-0.392
same,glycan array binding signal (z-score),[17],-0.388
same,glycan array binding signal (z-score),[18],1.95
same,glycan array binding signal (z-score),[19],2.28
same,glycan array binding signal (z-score),[20],2.97
same,glycan array binding signal (z-score),[21],-0.386
same,glycan array binding signal (z-score),[22],-0.388
same,glycan array binding signal (z-score),[23],-0.381
same,glycan array binding signal (z-score),Neu5Ac(a2-6)GalNAc,-0.349
same,glycan array binding signal (z-score),[24],-0.392
same,glycan array binding signal (z-score),[25],-0.394
same,glycan array binding signal (z-score),[26],-0.391
same,glycan array binding signal (z-score),Neu5Ac(a2-8)Neu5Ac,-0.38
same,glycan array binding signal (z-score),[27],-0.36
same,glycan array binding signal (z-score),[28],-0.381
same,glycan array binding signal (z-score),[29],-0.383
same,glycan array binding signal (z-score),[30],-0.383
same,glycan array binding signal (z-score),[31],-0.377
same,glycan array binding signal (z-score),[32],-0.389
same,glycan array binding signal (z-score),[33],-0.382
same,glycan array binding signal (z-score),Neu5Ac(b2-6)GalNAc,-0.388
same,glycan array binding signal (z-score),[34],-0.387
same,glycan array binding signal (z-score),[35],-0.393
same,glycan array binding signal (z-score),[36],-0.393
same,glycan array binding signal (z-score),[37],-0.363
same,glycan array binding signal (z-score),[38],-0.391
same,glycan array binding signal (z-score),Neu5Gc(a2-3)Gal(b1-4)Glc,-0.382
same,glycan array binding signal (z-score),[39],-0.387
same,glycan array binding signal (z-score),[40],-0.368
same,glycan array binding signal (z-score),[41],-0.392
same,glycan array binding signal (z-score),Neu5Gc(a2-6)GalNAc,-0.392
same,glycan array binding signal (z-score),[42],-0.385

# From the supplement of paper PMC8728848
